Test results reported in the RNAGym collection of RNA variant scans (doi:10.7554/elife.90254).
The source gives no read counts; variants with many changes may rest on few reads.

B1: LINE1-mini (parent)
chain: GGCAGAGCUCAACACAGCGUGGCAAAGUGGCUGUGGCUAGACUGCC

Variants of: B1
Assay: self-cleavage, relative activity (ratio to wild type); higher = more cleavage; in vitro, sequencing; the parent is a self-cleaving ribozyme

Variant | self-cleavage
GGCAGAGCUCAACACAUUGUGGCAAAGCGGCUGUGGCUAGACUGCC | 0.13
GGUAUAGUUCAACACAGCGUGGCAAAGUGGCUGUGGCUAGAAUGCG | 0.09
GGCAGCGCUCAACACUGCGUGGGAAAGUGGCUGUGGCUAGACUGCC | 0.11
GGCAGAGCCCAACACCGCGUGGCAAAGUGGCUGUGGCUUGACUGCC | 0
GGCAGAGCUGGACACAGGGUGGCAAAGUGGCUGUGGCUAGACUGCC | 0.02
GGCAGAGCUCAACACAGAGUGGCAAAGUGGCUGUGGACAAACUGCC | 0.09
GGGAGAGCUCAACAUAGCGUGGAAAAGUGGCUGUGGCUAGACUGCC | 0.49
GGAAGACCUCAACACAGCGUGGCAAAGUGGCUGUGUCUAGACUGCC | 0.09
GGCAGAGCUCAGCACAGCAUGGCAAAUUGGCUGUGGCUAGACUGCC | 0
GGCAGAGCUCAACACAGCGUGGGGAAGUGCCGAUGGAUCGAAUGCC | 0.04
GGCAGCGCUCAACACACCGUGGCAAAGUGGCUGUGGCUCGACUGCC | 0.48
GGCGGAGCUCAACACAGCGUGGCAAACUGGUUGUGGCUAGACUGCC | 0.13
GGCAUAGCUCAACACAGCGUGGCACAUUGGCUGUGGCUAGACUGCC | 0.04
GGCAGAGCUCAACACAGCAUGGCAAAGUGGUUGUGGUUAGACUGCC | 0.06
GGCAGUGCUCAACACAGCGUGGCAAAGUCGCUGUGGCUAGAGUACC | 0.01
GGCAGAAUUCAACAAAGCGUGGCAAAGUGGCUGUGGCUAGACUGCC | 0.36
GGUACACCUCAACACAGCGUGGCAAAGUGGCUGUAGCUAGACUGCC | 0.1
UGCUGAGCUCAACACAGCCUGGCAAAGUGGCUGUGGCUAGACUGCC | 0.13
GGCAGAGCUCAACACAGCGGGGCAAAGUGGCUGUUGCUAGAAUCCC | 0.06

Variant | self-cleavage
GGCAGAGCUCAGCACAGCGUGGCAAAUUGGAUGUGGCUGGCCUGCC | 0
GUCAGAGCUCACCAGAGCGUGGCAAAGUGCCUGUGGCUAGACUGCC | 0.01
GGCAGAGCUCAAUACAGCGUGGAAAAGUGGCUGUGACUAGACUGCC | 0.14
GGCAGAGCUCUACACAGCGUGGCAAAGUGGCUGUUGCUAGACUCCC | 0.01
GGCAGCGCUCAACACAGCGUGGGAAAGCGGCUGUGGCUAGACUGGC | 0
GGCAGAGCCCAACACAGGGUGGCAAAGUGGCUGUGGCGAGACUGCC | 0
AGCAAAGCUUAACACAGCGUGGCAAAGUGGCUGUGGCUAGACUGCC | 0.49
AGCAGAGCUAAAUACAGAGUGGCAAGGUGGCUUUGGCUAGACUGCC | 0.02
CGCAGAGCUAAACACAGCGUGGCAAAGUGGCUGUGGUUAGACUGCC | 0
GGCAGAGCUCAACACAGCAUGGCAAAAUCGCUGUGGCUAGACUGAC | 0.75
GGCGGAGCUCAAUACAGCGUGGCAAAGUGGCUGUGGCUGGACUGAC | 0.08
GGAAGAGCACAACACAGCGUGGCAAAGUGGCUGUGGCAAGACUGCC | 0.16
GGCAGAGCUCAAAACAGCUAGGCCAAGUGGCUGUGGCUAGAUUGCC | 0.02
GUCAGCGCUCAACACAGCGUGGCAAAGUGCCUGUGGCUAGACUGCC | 0.04
GGCAGAGCUCAAGACAGCGUGGCAAAGUGGCUGUGUCUAGACGGGC | 0.13
GGCAGAGCUCAACACAGCGUGGCAAAGUGGUUGUGGCUAGUCUCCC | 0.02
GGCUGAGCUCAACACAGCGUGGCAAAGUGGCUGUGCCAAGACUGCC | 0.1
GGCAGUGAUCAACACAGCGUUGCAAAGUGGCUGUUGCUAGACUGGC | 0.11
GGCAGAUCUCAUCAUAGCGUGGCAGAGUGGCUGUGGCUUAACUGCC | 0.04

Variant | self-cleavage
GGCAGAGCUCAACACAGCGUGGCAGAGUUGCUGUGGCUAGUCUGCC | 0.26
GGCAGAGCUAAACACAGCGUGGCAAAGUGGCUGUGCCUAGACUGCA | 0
GGCAGAGCUCAACCCAGCGUGGCAAAGGGGCUGUGGCUCGACUGCC | 0.27
GGCAGAGCUAAGCACACCGUGGCAAAGUGGCUGUGACUAGACUGCU | 0.04
GGCAGAGCUCAACACAGCGUGGCUAAGUGGCUGUGGCUAGACAACC | 0.08
GCCAGAGCUCAUCACAGCGUGGCAAGGUGGCUGUGGCUAGACUGCC | 0.03
GGUUGAGCUCAACACAGCUUGGCAAAGUGGCUGUGGCUAGACUGCC | 0.01
GGCAGAGCUCAACAUAGCGUGGCACAGCGGAUGUGCCUGGACUGAC | 0.12
GGCAGAGCGCAACACUGCGUGGCAAUGUGGCUGUGGCUAGCCUGCC | 0.01
GGCAGAGAUCAACACGGCGUGGCAUAGUGGCUGCGGAUAGACUGCC | 0.13
GGUAGAGCUCAACACAGUGUGGCAAAGCCGCUGUGGCUAGACUGCC | 0.05
GGCAGAGCUCAACACAGCUGGGCGACGUGGCUGUGGCUAGACUGCC | 1.16
GGCAAAUCUUAACUCAGCGUGGCAAAGUGGCUGUGGCUAAACUGCC | 0.05
GGCAGAGCUCAUCACAGCGUGGCUAAGUGGCGGUGGCUAGACUGCC | 0.01
GGCAGAGCUCAACUCAGCGUUGCAAAUUGGCUGUGGCUAGACUGCC | 0.15
GGCAGAGCUCAACACACCGAGGCACAGUGGCUGUGGCUAGACUGUC | 0.04
GGCAUAGCUUAACACAGCGUGGCAAAGUGGCUGUGGAUAGAAUGCC | 0
GGCAGAGCUCAAAACAGCGUCGCAAAGUGGCUGUGGCUAAACUGCC | 0.07
